# Results from the supplement of paper PMC4604168 (melanoma cell lines).
# Some of the results follow. Repeats are few or missing, and single values can be far off.
# Columns and labels:
# Experiment in all cases: cell count relative to DMSO control; melanoma cells; higher = more viable cells
# Settings in all cases: library dose: low library concentration; 72 h
# WM115 = test system: WM115
# WM1716 = test system: WM1716
# WM1745 = test system: WM1745
# WM3526 = test system: WM3526
# WM3619 = test system: WM3619
# WM451Lu = test system: WM451Lu
# 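Note: cell number obtained by counting DAPI-stained nuclei in high-throughput microscope images with image analysis software, screen run in 1,536-well plates.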
SMILES,cell count (WM115) [%],cell count (WM1716) [%],cell count (WM1745) [%],cell count (WM3526) [%],cell count (WM3619) [%],cell count (WM451Lu) [%]
"Nc1cccc2c1CN(C1CCC(=O)NC1=O)C2=O (configuration not stated) [lenalidomide] + COc1ccc(-c2ccc3c(N4CCOCC4)nc(N4C[C@@H](C)O[C@@H](C)C4)nc3n2)cc1CO [KU0063794] (first compound 1 µM, partner dose 0.02 µM)",85.5,92.5,98.9,86.7,76.3,105
"C#Cc1cccc(Nc2ncnc3cc(OCCOC)c(OCCOC)cc23)c1 [erlotinib] + Cn1cc(/C=C2\C(=O)Nc3cccnc32)c2ccccc21 [GW441756] (first compound 0.8 µM, partner dose 0.4 µM)",101,99.6,73.6,98.3,98.8,111
"Clc1ccc(Nc2nnc(Cc3ccncc3)c3ccccc23)cc1 [vatalanib] + Cc1nc(Nc2ncc(C(=O)Nc3c(C)cccc3Cl)s2)cc(N2CCN(CCO)CC2)n1 [dasatanib] (first compound 2 µM, partner dose 0.004 µM)",70.6,74.5,70.6,98.4,89.1,60.7
"O=C(CCCCCCC(=O)Nc1ccccc1)NO [vorinostat] + O=c1cc(-c2cccc3c2Sc2ccccc2S3)oc(N2CCOCC2)c1 [KU55933] (first compound 0.08 µM, partner dose 1 µM)",106,125,112,85.8,104,85.4
"Nc1cccc2c1CN(C1CCC(=O)NC1=O)C2=O (configuration not stated) [lenalidomide] + N#Cc1c(O)c2c(-c3ccc(-c4ccccc4O)cc3)csc2[nH]c1=O [A769662] (first compound 1 µM, partner dose 2 µM)",83.1,87,87,92.5,98.5,84.8
"Cn1c(Nc2ccc(C(F)(F)F)cc2)nc2cc(Oc3ccnc(-c4ncc(C(F)(F)F)[nH]4)c3)ccc21 + N#Cc1c(O)c2c(-c3ccc(-c4ccccc4O)cc3)csc2[nH]c1=O [A769662] (first compound 0.08 µM, partner dose 2 µM)",62,77.4,58,51.3,99.7,61.8
"O=C(CCCCCCC(=O)Nc1ccccc1)NO [vorinostat] + CC(C)CCN1c2nc(Nc3cc(F)c(O)c(F)c3)ncc2N(C)C(=O)C1C [BID1870] (first compound 0.08 µM, partner dose 0.2 µM)",91,109,100,88,95.5,88.1
"COCC[n+]1c2c(n(Cc3cnccn3)c1C)C(=O)c1ccccc1C2=O + O=C(O)c1ccc(-c2c[nH]c3ncc(-c4ccccc4)cc23)cc1C1CCCC1 [GSK650394] (first compound 0.0004 µM, partner dose 0.16 µM)",96.4,85.6,93.3,80.3,115,54.6
"C#Cc1cccc(Nc2ncnc3cc(OCCOC)c(OCCOC)cc23)c1 [erlotinib] + O=C(O)c1ccc(-c2c[nH]c3ncc(-c4ccccc4)cc23)cc1C1CCCC1 [GSK650394] (first compound 0.8 µM, partner dose 0.16 µM)",89.6,94.8,75.5,101,93.7,86.9
"OCc1c[nH]c2ccccc12 [Indole-3-carbinol] + O=C(Nc1ccccc1)c1cc([N+](=O)[O-])ccc1Cl [GW9662] (first compound 0.8 µM, partner dose 2 µM)",95.9,111,86,118,71.6,92.9
"Nc1cccc2c1CN(C1CCC(=O)NC1=O)C2=O (configuration not stated) [lenalidomide] + Cc1cc(N2CCOCC2)cc2[nH]c(-c3c(NC[C@@H](O)c4cccc(Cl)c4)cc[nH]c3=O)nc12 [BMS536924] (first compound 1 µM, partner dose 0.2 µM)",91.7,95.8,76.1,83.9,93.1,95.6
"Cn1c(Nc2ccc(C(F)(F)F)cc2)nc2cc(Oc3ccnc(-c4ncc(C(F)(F)F)[nH]4)c3)ccc21 + C[C@]1(c2nc3c(C(N)=O)cccc3[nH]2)CCCN1 [Veliparib] (first compound 0.08 µM, partner dose 1.4 µM)",45.7,63.2,63.3,46.9,50.7,79.8
"OCc1c[nH]c2ccccc12 [Indole-3-carbinol] + O=C(O)C(=O)Nc1sc2c(c1C(=O)O)CCNC2 [TCS401] (first compound 0.8 µM, partner dose 1.66667 µM)",103,115,92.2,96.8,99.5,108
"Clc1ccc(Nc2nnc(Cc3ccncc3)c3ccccc23)cc1 [vatalanib] + O=C(O)c1ccc(-c2c[nH]c3ncc(-c4ccccc4)cc23)cc1C1CCCC1 [GSK650394] (first compound 2 µM, partner dose 0.16 µM)",91.9,94.7,83.7,97.1,117,109
"Nc1cccc2c1CN(C1CCC(=O)NC1=O)C2=O (configuration not stated) [lenalidomide] + CC1(C)NC(=O)N(c2ccc([N+](=O)[O-])c(C(F)(F)F)c2)C1=O [nilutamide] (first compound 1 µM, partner dose 1 µM)",90.9,85.6,88.3,91.3,88.6,84.8
"COCC[n+]1c2c(n(Cc3cnccn3)c1C)C(=O)c1ccccc1C2=O + CN(NC(=O)CC(=O)NN(C)C(=S)c1ccccc1)C(=S)c1ccccc1 [STA4783] (first compound 0.0004 µM, partner dose 0.006 µM)",67.9,54.2,23.7,80.7,28.3,70.7
"C#Cc1cccc(Nc2ncnc3cc(OCCOC)c(OCCOC)cc23)c1 [erlotinib] + CC(C)(C)c1cnc(CSc2cnc(NC(=O)C3CCNCC3)s2)o1 [SNS-032] (first compound 0.8 µM, partner dose 0.01 µM)",103,94.2,84.3,111,130,108
"COCC[n+]1c2c(n(Cc3cnccn3)c1C)C(=O)c1ccccc1C2=O + NCC(=O)Nc1ccc(-n2nc(C(F)(F)F)cc2-c2ccc3c(ccc4ccccc43)c2)cc1 [OSU03012] (first compound 0.0004 µM, partner dose 1 µM)",74.4,82.6,97.6,35.9,80.5,56.4
"C#Cc1cccc(Nc2ncnc3cc(OCCOC)c(OCCOC)cc23)c1 [erlotinib] + Oc1cc(-c2nc(-c3ccccc3)[nH]c2-c2ccncc2)ccc1Cl [L779450] (first compound 0.8 µM, partner dose 0.2 µM)",88,98.5,72.9,72.7,64.8,106
"C#Cc1cccc(Nc2ncnc3cc(OCCOC)c(OCCOC)cc23)c1 [erlotinib] + O=c1cc(-c2cccc3c2Sc2ccccc2S3)oc(N2CCOCC2)c1 [KU55933] (first compound 0.8 µM, partner dose 1 µM)",114,97.7,81.6,76.7,115,109
"Clc1ccc(Nc2nnc(Cc3ccncc3)c3ccccc23)cc1 [vatalanib] + COc1cc2c(Oc3ccc4[nH]c(C)cc4c3F)ncnc2cc1OCCCN1CCCC1 [cediranib] (first compound 2 µM, partner dose 0.4 µM)",109,93.7,78.8,98.6,77.7,78.1
"Cn1c(Nc2ccc(C(F)(F)F)cc2)nc2cc(Oc3ccnc(-c4ncc(C(F)(F)F)[nH]4)c3)ccc21 + COc1cc2ncnc(Nc3ccc(Oc4ccccc4)cc3)c2cc1OC [SrcI1] (first compound 0.08 µM, partner dose 2 µM)",60,88.4,53.6,45.1,67.4,92.7
"Clc1ccc(Nc2nnc(Cc3ccncc3)c3ccccc23)cc1 [vatalanib] + C=CCn1c(=O)c2cnc(Nc3ccc(N4CCN(C)CC4)cc3)nc2n1-c1cccc(C(C)(C)O)n1 [MK1775] (first compound 2 µM, partner dose 0.02 µM)",81.5,81.2,77.2,105,76.2,113
"OCc1c[nH]c2ccccc12 [Indole-3-carbinol] + OCCn1cc(-c2cnc3nnn(Cc4ccc5ncccc5c4)c3n2)cn1 [PF04217903] (first compound 0.8 µM, partner dose 1 µM)",103,93,89.9,110,64.7,96.2
"O=C(CCCCCCC(=O)Nc1ccccc1)NO [vorinostat] + CN(NC(=O)CC(=O)NN(C)C(=S)c1ccccc1)C(=S)c1ccccc1 [STA4783] (first compound 0.08 µM, partner dose 0.006 µM)",70.9,56,51.2,73,86.7,110
"Cn1c(Nc2ccc(C(F)(F)F)cc2)nc2cc(Oc3ccnc(-c4ncc(C(F)(F)F)[nH]4)c3)ccc21 + O=C1NC(=O)/C(=C/c2ccc(-c3ccc(F)cc3O)o2)S1 [AS252424] (first compound 0.08 µM, partner dose 1 µM)",48.3,76.6,48.5,50.4,41.8,95.7
"C#Cc1cccc(Nc2ncnc3cc(OCCOC)c(OCCOC)cc23)c1 [erlotinib] + c1cc(-c2cnn3cc(-c4ccc(OCCN5CCCCC5)cc4)cnc23)ccn1 [Dorsomorphin] (first compound 0.8 µM, partner dose 0.4 µM)",91.5,94,79,87.9,90.9,104
